Test results taken from the supplement of paper PMC9151546.
Single values are uncertain, as repeats are few or missing.

Key:
[1] = tested on: CHO-K1; assay: hypodiploid nuclei frequency (% of nucleated events); higher = more hypodiploid events (aneugenic)
Procedure: (§1)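 Flow-cytometric in vitro micronucleus assay (Litron MicroFlow) in CHO-K1 cells in 96-well plates, 19 concentrations (4.5-200 µM, n=1 per concentration). Without S9, cells were exposed for 24 h and sampled at 48 h. With Aroclor 1254-induced rat liver S9, cells were exposed for 3-4 h and sampled at 27-28 h. Read-outs are %MN and %hypodiploid nuclei relative to nucleated events, and relative survival as the nuclei-to-bead ratio versus the 1% DMSO vehicle control (x100).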

[2] = tested on: CHO-K1; assay: micronucleus frequency (% of nucleated events); higher = more micronuclei (genotoxic)
[3] = tested on: CHO-K1; assay: relative survival (nuclei to bead ratio vs DMSO control) (% of vehicle control); higher = more surviving cells
Procedure: as §1
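Wherever hypodiploid nuclei frequency (% of nucleated events) is given: hypodiploid nuclei gated on a flow cytometer with 488 nm excitation after SYTOX Green staining, cultures at 37 °C, positive controls vinblastine without S9 and cyclophosphamide with S9.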
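Wherever micronucleus frequency (% of nucleated events) is given: cells lysed with nuclei stained by SYTOX Green, then micronucleus-gated events counted against nucleated events by flow cytometry with 488 nm excitation.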
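Wherever relative survival (nuclei to bead ratio vs DMSO control) is given: Lysed-cell nuclei stained with SYTOX Green and counted against counting beads by flow cytometry at 488 nm excitation, with vinblastine (no S9) and cyclophosphamide (plus S9) as positive controls.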

CC(=O)CC(C)(C)O [Diacetone alcohol]
Conditions | hypodiploid nuclei frequency, [1] [%] | micronucleus frequency, [2] [%] | relative survival, [3]
concentration: 4.5 (µM), S9 metabolic activation: with S9, exposure time: 3-4 hours | 0.3 | 1.42 | 152
concentration: 4.5 (µM), S9 metabolic activation: without S9, exposure time: 24 hours | 0.94 | 1.22 | 78.1
concentration: 5.63 (µM), S9 metabolic activation: with S9, exposure time: 3-4 hours | 0.3 | 1.94 | 119
concentration: 5.63 (µM), S9 metabolic activation: without S9, exposure time: 24 hours | 0.8 | 1.82 | 86.9
concentration: 7.04 (µM), S9 metabolic activation: with S9, exposure time: 3-4 hours | 0.42 | 1.04 | 146
concentration: 7.04 (µM), S9 metabolic activation: without S9, exposure time: 24 hours | 0.52 | 1.42 | 77.9
concentration: 8.8 (µM), S9 metabolic activation: with S9, exposure time: 3-4 hours | 0.24 | 1.58 | 142
concentration: 8.8 (µM), S9 metabolic activation: without S9, exposure time: 24 hours | 0.76 | 1.26 | 104
concentration: 11 (µM), S9 metabolic activation: with S9, exposure time: 3-4 hours | 0.26 | 1.18 | 157
concentration: 11 (µM), S9 metabolic activation: without S9, exposure time: 24 hours | 0.74 | 1.34 | 81.3
concentration: 13.7 (µM), S9 metabolic activation: with S9, exposure time: 3-4 hours | 0.32 | 1.02 | 145
concentration: 13.7 (µM), S9 metabolic activation: without S9, exposure time: 24 hours | 0.68 | 1.76 | 84.9
concentration: 17.2 (µM), S9 metabolic activation: with S9, exposure time: 3-4 hours | 0.16 | 1.04 | 134
concentration: 17.2 (µM), S9 metabolic activation: without S9, exposure time: 24 hours | 0.74 | 1.12 | 88.4
concentration: 21.5 (µM), S9 metabolic activation: with S9, exposure time: 3-4 hours | 0.22 | 2.14 | 136
concentration: 21.5 (µM), S9 metabolic activation: without S9, exposure time: 24 hours | 0.82 | 1.22 | 90.9
concentration: 26.8 (µM), S9 metabolic activation: with S9, exposure time: 3-4 hours | 0.28 | 1.5 | 177
concentration: 26.8 (µM), S9 metabolic activation: without S9, exposure time: 24 hours | 0.62 | 1.14 | 78.8
concentration: 33.6 (µM), S9 metabolic activation: with S9, exposure time: 3-4 hours | 0.3 | 1.74 | 156
concentration: 33.6 (µM), S9 metabolic activation: without S9, exposure time: 24 hours | 0.7 | 1.16 | 95.3
concentration: 41.9 (µM), S9 metabolic activation: with S9, exposure time: 3-4 hours | 0.36 | 2.4 | 185
concentration: 41.9 (µM), S9 metabolic activation: without S9, exposure time: 24 hours | 0.7 | 1.32 | 102
concentration: 52.4 (µM), S9 metabolic activation: with S9, exposure time: 3-4 hours | 0.16 | 2.12 | 139
concentration: 52.4 (µM), S9 metabolic activation: without S9, exposure time: 24 hours | 0.74 | 1.58 | 111
concentration: 65.5 (µM), S9 metabolic activation: with S9, exposure time: 3-4 hours | 0.18 | 1.78 | 172
concentration: 65.5 (µM), S9 metabolic activation: without S9, exposure time: 24 hours | 0.82 | 1.68 | 123
concentration: 81.9 (µM), S9 metabolic activation: with S9, exposure time: 3-4 hours | 0.26 | 1.72 | 191
concentration: 81.9 (µM), S9 metabolic activation: without S9, exposure time: 24 hours | 0.88 | 2.02 | 116
concentration: 102 (µM), S9 metabolic activation: with S9, exposure time: 3-4 hours | 0.24 | 1.54 | 191
concentration: 102 (µM), S9 metabolic activation: without S9, exposure time: 24 hours | 0.94 | 1.28 | 110
concentration: 128 (µM), S9 metabolic activation: with S9, exposure time: 3-4 hours | 0.24 | 2.46 | 171
concentration: 128 (µM), S9 metabolic activation: without S9, exposure time: 24 hours | 0.94 | 1.9 | 102
concentration: 160 (µM), S9 metabolic activation: with S9, exposure time: 3-4 hours | 0.24 | 1.74 | 163
concentration: 160 (µM), S9 metabolic activation: without S9, exposure time: 24 hours | 0.7 | 1.64 | 108
concentration: 200 (µM), S9 metabolic activation: with S9, exposure time: 3-4 hours | 0.28 | 1.9 | 161
concentration: 200 (µM), S9 metabolic activation: without S9, exposure time: 24 hours | 1.14 | 2 | 103

N#CC(Br)Br [Dibromoacetonitrile]
Conditions | hypodiploid nuclei frequency, [1] [%] | micronucleus frequency, [2] [%] | relative survival, [3]
concentration: 4.5 (µM), S9 metabolic activation: with S9, exposure time: 3-4 hours | 0.12 | 0.96 | 111
concentration: 4.5 (µM), S9 metabolic activation: without S9, exposure time: 24 hours | 1.22 | 1.08 | 102
concentration: 5.63 (µM), S9 metabolic activation: with S9, exposure time: 3-4 hours | 0.28 | 0.82 | 111
concentration: 5.63 (µM), S9 metabolic activation: without S9, exposure time: 24 hours | 1.14 | 1.34 | 118
concentration: 7.04 (µM), S9 metabolic activation: with S9, exposure time: 3-4 hours | 0.36 | 0.78 | 122
concentration: 7.04 (µM), S9 metabolic activation: without S9, exposure time: 24 hours | 1.12 | 1.74 | 107
concentration: 8.8 (µM), S9 metabolic activation: with S9, exposure time: 3-4 hours | 0.2 | 0.96 | 112
concentration: 8.8 (µM), S9 metabolic activation: without S9, exposure time: 24 hours | 1.36 | 1.5 | 98.4
concentration: 11 (µM), S9 metabolic activation: with S9, exposure time: 3-4 hours | 0.3 | 0.96 | 105
concentration: 11 (µM), S9 metabolic activation: without S9, exposure time: 24 hours | 1.24 | 1.2 | 94.4
concentration: 13.7 (µM), S9 metabolic activation: with S9, exposure time: 3-4 hours | 0.22 | 1.22 | 109
concentration: 13.7 (µM), S9 metabolic activation: without S9, exposure time: 24 hours | 1.16 | 1.08 | 112
concentration: 17.2 (µM), S9 metabolic activation: with S9, exposure time: 3-4 hours | 0.18 | 1.28 | 104
concentration: 17.2 (µM), S9 metabolic activation: without S9, exposure time: 24 hours | 0.98 | 1.44 | 98.4
concentration: 21.5 (µM), S9 metabolic activation: with S9, exposure time: 3-4 hours | 0.18 | 1.22 | 106
concentration: 21.5 (µM), S9 metabolic activation: without S9, exposure time: 24 hours | 1.02 | 1.22 | 89.7
concentration: 26.8 (µM), S9 metabolic activation: with S9, exposure time: 3-4 hours | 0.48 | 1.1 | 122
concentration: 26.8 (µM), S9 metabolic activation: without S9, exposure time: 24 hours | 1.3 | 1.58 | 102
concentration: 33.6 (µM), S9 metabolic activation: with S9, exposure time: 3-4 hours | 0.42 | 1.04 | 102
concentration: 33.6 (µM), S9 metabolic activation: without S9, exposure time: 24 hours | 1.78 | 1.86 | 95.7
concentration: 41.9 (µM), S9 metabolic activation: with S9, exposure time: 3-4 hours | 0.28 | 0.92 | 86.8
concentration: 41.9 (µM), S9 metabolic activation: without S9, exposure time: 24 hours | 1.32 | 1.58 | 102
concentration: 52.4 (µM), S9 metabolic activation: with S9, exposure time: 3-4 hours | 0.18 | 1.14 | 93.5
concentration: 52.4 (µM), S9 metabolic activation: without S9, exposure time: 24 hours | 1.46 | 3.08 | 92.3
concentration: 65.5 (µM), S9 metabolic activation: with S9, exposure time: 3-4 hours | 0.22 | 1.02 | 96.2
concentration: 65.5 (µM), S9 metabolic activation: without S9, exposure time: 24 hours | 2.04 | 1.84 | 82.6
concentration: 81.9 (µM), S9 metabolic activation: with S9, exposure time: 3-4 hours | 0.22 | 0.66 | 82.8
concentration: 81.9 (µM), S9 metabolic activation: without S9, exposure time: 24 hours | 2.14 | 2.22 | 81.2
concentration: 102 (µM), S9 metabolic activation: with S9, exposure time: 3-4 hours | 0.36 | 0.96 | 88.9
concentration: 102 (µM), S9 metabolic activation: without S9, exposure time: 24 hours | 2.66 | 2.1 | 75.1
concentration: 128 (µM), S9 metabolic activation: with S9, exposure time: 3-4 hours | 0.28 | 1.06 | 94.6
concentration: 128 (µM), S9 metabolic activation: without S9, exposure time: 24 hours | 3.06 | 2.2 | 64.1
concentration: 160 (µM), S9 metabolic activation: with S9, exposure time: 3-4 hours | 0.44 | 1.78 | 94.3
concentration: 160 (µM), S9 metabolic activation: without S9, exposure time: 24 hours | 3.3 | 2.96 | 49.6
concentration: 200 (µM), S9 metabolic activation: with S9, exposure time: 3-4 hours | 0.32 | 1.02 | 114
concentration: 200 (µM), S9 metabolic activation: without S9, exposure time: 24 hours | 2.26 | 2.28 | 43.7
